Paper PMC5103362 (Autophagy, 2016)
These are yes or no findings as the source states them, for the method shown. For part of these data: In cells and extracts the contact can be indirect. Some binding calls cover weakened binding; strength is not graded here. For part of these data: Sequences can lack the tags named with a protein.

Amino acid sequences for entries named in this document (tags omitted). A change or cut given only in a name is not applied to a line headed by its entry.
UniProt P22219: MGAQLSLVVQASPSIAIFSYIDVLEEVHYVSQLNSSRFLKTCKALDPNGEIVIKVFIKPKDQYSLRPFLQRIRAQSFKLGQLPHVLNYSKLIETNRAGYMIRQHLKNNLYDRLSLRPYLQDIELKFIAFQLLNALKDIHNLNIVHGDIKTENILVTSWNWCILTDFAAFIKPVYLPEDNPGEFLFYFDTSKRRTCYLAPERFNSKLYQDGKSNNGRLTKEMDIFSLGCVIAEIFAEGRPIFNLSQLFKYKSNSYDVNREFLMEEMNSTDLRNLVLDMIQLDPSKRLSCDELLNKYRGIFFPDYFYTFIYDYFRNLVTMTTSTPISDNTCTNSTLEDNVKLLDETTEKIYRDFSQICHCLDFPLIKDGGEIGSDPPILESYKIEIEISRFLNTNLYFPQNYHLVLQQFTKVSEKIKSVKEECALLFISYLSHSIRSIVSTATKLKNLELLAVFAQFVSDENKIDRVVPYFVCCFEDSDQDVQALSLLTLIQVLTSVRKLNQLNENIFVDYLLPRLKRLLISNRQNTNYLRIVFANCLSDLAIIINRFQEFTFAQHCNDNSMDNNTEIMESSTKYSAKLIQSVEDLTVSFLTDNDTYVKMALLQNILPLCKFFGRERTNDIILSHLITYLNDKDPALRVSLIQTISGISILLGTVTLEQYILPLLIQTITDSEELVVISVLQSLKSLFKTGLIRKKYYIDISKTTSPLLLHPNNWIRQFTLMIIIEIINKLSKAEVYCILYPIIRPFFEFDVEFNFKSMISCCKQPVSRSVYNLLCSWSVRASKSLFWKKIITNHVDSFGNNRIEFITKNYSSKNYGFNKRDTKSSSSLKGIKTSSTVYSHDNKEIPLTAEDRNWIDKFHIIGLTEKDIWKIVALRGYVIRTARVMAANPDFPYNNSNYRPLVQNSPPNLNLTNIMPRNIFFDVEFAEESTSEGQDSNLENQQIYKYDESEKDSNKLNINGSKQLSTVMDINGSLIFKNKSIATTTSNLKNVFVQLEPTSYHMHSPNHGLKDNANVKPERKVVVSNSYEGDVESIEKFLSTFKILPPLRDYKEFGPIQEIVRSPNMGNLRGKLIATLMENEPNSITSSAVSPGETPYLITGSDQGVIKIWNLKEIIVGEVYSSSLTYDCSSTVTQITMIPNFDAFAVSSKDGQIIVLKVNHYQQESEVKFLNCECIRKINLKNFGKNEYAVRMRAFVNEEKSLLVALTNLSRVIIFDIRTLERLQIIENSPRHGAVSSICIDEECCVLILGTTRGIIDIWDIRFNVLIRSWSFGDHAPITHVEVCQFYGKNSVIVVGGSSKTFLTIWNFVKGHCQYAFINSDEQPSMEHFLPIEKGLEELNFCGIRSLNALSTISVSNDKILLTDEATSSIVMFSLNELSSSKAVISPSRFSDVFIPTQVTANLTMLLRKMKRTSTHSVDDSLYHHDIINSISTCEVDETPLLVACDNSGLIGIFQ

Legend:
[1] = biological target: His6-NRBF2-MIT domain (residues 1 to 89) (human) (UniProt Q96F24); assay: SEC-MALS; NRBF2 MIT domain alone; 20 mM Tris pH 8.0, 200 mM NaCl, 0.5 mM TCEP; both purified
[2] = biological target: T1, GST-Atg38 (87 to 226) (S. cerevisiae) (UniProt Q05789); assay: condition: 1.78 μM complex I with 10-fold excess of GST fusion; pull-down; GST affinity isolation: GST fusions of Atg38 on glutathione Sepharose, purified yeast complex I at 1.78 µM with 10-fold excess of GST fusion; 50 mM Tris pH 8.8, 150 mM NaCl, 1 mM TCEP, on ice 90 min; stained gel; both purified
T1 sequence: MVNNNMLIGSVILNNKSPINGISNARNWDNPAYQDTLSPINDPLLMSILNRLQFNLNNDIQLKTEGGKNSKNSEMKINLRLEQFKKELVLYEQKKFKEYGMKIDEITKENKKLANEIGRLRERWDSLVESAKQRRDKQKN

[3] = biological target: T2, Atg38 C terminusΔ (residues 123 to 226 deleted), 3xFLAG (S. cerevisiae) (UniProt Q05789); assay: co-IP; yeast lysates after 4 h in SD(-N); anti-Flag M2 agarose IP of Atg38-3xFLAG variants, Atg38-ZZ detected with PAP; lysis buffer with 200 mM NaCl, 1% Triton X-100
T2 sequence: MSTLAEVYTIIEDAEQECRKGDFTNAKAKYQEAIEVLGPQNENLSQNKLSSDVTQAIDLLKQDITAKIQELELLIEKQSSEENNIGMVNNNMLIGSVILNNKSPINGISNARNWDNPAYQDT

[4] = biological target: T3, Atg38 capΔ (123 to 181 deleted), 3xFLAG (S. cerevisiae) (UniProt Q05789); assay: as above
T3 sequence: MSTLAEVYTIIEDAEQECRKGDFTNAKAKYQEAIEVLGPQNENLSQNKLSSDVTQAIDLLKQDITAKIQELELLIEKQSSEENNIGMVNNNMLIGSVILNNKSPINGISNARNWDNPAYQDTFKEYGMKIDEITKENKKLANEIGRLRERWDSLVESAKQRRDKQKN

[5] = biological target: T4, Atg38 capΔ+stalkΔ (123 to 209 deleted), 3xFLAG (S. cerevisiae) (UniProt Q05789); assay: as above
T4 sequence: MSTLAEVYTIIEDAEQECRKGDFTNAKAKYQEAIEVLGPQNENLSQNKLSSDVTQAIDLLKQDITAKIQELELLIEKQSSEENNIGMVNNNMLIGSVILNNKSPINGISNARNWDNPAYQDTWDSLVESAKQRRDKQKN

[6] = biological target: T5, Atg38 full length, 3xFLAG (S. cerevisiae) (UniProt Q05789); assay: as above
T5 sequence: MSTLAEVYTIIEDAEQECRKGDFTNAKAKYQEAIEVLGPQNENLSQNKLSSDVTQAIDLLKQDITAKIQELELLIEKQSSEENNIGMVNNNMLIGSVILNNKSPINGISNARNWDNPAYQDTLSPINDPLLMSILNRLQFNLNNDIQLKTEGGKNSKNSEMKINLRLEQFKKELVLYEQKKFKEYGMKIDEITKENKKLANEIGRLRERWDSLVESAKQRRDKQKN

[7] = biological target: T6, Atg38 stalkΔ (182 to 209 deleted), 3xFLAG (S. cerevisiae) (UniProt Q05789); assay: as above
T6 sequence: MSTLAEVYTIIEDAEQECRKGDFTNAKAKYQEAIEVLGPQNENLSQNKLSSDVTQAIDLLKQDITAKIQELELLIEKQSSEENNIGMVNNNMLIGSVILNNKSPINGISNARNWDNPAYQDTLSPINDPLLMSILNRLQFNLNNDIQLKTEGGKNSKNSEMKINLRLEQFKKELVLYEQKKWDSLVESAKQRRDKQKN

[8] = biological target: T7, Atg38 tailΔ (209 to 226 deleted), 3xFLAG (S. cerevisiae) (UniProt Q05789); assay: as above
T7 sequence: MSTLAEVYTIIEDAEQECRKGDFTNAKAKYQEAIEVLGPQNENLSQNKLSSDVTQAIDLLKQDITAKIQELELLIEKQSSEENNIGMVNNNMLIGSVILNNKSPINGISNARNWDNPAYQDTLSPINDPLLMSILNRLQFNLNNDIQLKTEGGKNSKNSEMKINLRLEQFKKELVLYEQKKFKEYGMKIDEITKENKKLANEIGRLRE

[9] = biological target: Atg38 MIT domain (residues 1 to 78) (S. cerevisiae) (UniProt Q05789); assay: SEC-MALS; Atg38 full-length, MIT domain and deletion variants alone on S75 10/30; 20 mM Tris pH 7.9, 300 mM NaCl, 1 mM TCEP; both purified
[10] = biological target: Atg38 stalkΔ+tailΔ (182 to 226 deleted), recombinant (S. cerevisiae) (UniProt Q05789); assay: as above
[11] = biological target: Atg38 capΔ+stalkΔ (123 to 209 deleted), recombinant (S. cerevisiae) (UniProt Q05789); assay: as above
[12] = biological target: Atg38 C terminusΔ (residues 123 to 226 deleted), recombinant (S. cerevisiae) (UniProt Q05789); assay: as above

His6-NRBF2-MIT domain (residues 1 to 89) (from UniProt Q96F24 1-89) (domain or fragment)
binding [1]: no binding

yeast complex I (Vps15-Vps34-Vps30-Atg14 heterotetramer) (from UniProt P22219 1-1454; P22543 1-875; Q02948 1-557; P38270 1-344)
binding [2]: no binding

B1: Atg38, full-length (natural protein, S. cerevisiae, UniProt Q05789 1-226, looked up)
chain: T5 sequence
notes: also called purified Atg38; free Atg38; source: E. coli, purified (Glutathione Sepharose, TEV, HiTrap Q, S75); not shown: GST, N-terminal, cleaved
binding [3]: no binding
binding [4]: binds
binding [5]: no binding
binding [6]: binds
binding [7]: binds
binding [8]: binds

B2: GST-Atg38 (1 to 78) (domain or fragment, S. cerevisiae, UniProt Q05789 1-78, looked up)
chain: MSTLAEVYTIIEDAEQECRKGDFTNAKAKYQEAIEVLGPQNENLSQNKLSSDVTQAIDLLKQDITAKIQELELLIEKQ
notes: Atg38, S. cerevisiae, MIT domain, residues 1 to 78; also called MIT domain alone; source: E. coli, purified (Glutathione Sepharose, eluted with glutathione); not shown: GST, N-terminal, kept
binding [9]: no binding

B3: Atg38 stalkΔ+tailΔ (182 to 226 deleted), recombinant (domain or fragment, UniProt Q05789 1-181)
chain: MSTLAEVYTIIEDAEQECRKGDFTNAKAKYQEAIEVLGPQNENLSQNKLSSDVTQAIDLLKQDITAKIQELELLIEKQSSEENNIGMVNNNMLIGSVILNNKSPINGISNARNWDNPAYQDTLSPINDPLLMSILNRLQFNLNNDIQLKTEGGKNSKNSEMKINLRLEQFKKELVLYEQKK
binding [10]: no binding

B4: Atg38 capΔ+stalkΔ (123 to 209 deleted), recombinant (protein, UniProt Q05789)
chain: T4 sequence
binding [11]: no binding

B5: Atg38 C terminusΔ (residues 123 to 226 deleted), recombinant (domain or fragment, UniProt Q05789 1-122)
chain: T2 sequence
binding [12]: no binding
